Where “and” joins values, the source holds several entries; their conditions need not be identical. Identical values can stand only once. Inconclusive results, whose numbers are uncertain, are shown with a selection of clear calls. For some of these results: Where the call is inconclusive, the potency comes from a doubtful curve fit. Calls of active or inactive are those of the source. Unless noted, calls come from the whole dose curve; as a rule, active = well fitted curve in the direction sought with a large enough effect in the repeat runs; inconclusive = weak or mixed curves; inactive = no such curve, though single readings can be large; an effect the other way counts as inactive or inconclusive.
Columns and labels:
[1] = molecular target: Thyrotropin receptor (Homo sapiens) (UniProt P16473); experiment: qHTS assay to identify small molecule agonists of the thyroid stimulating hormone receptor (TSHR) signaling pathway (AID 1224843; calls by dose curve; note: nearly all actives have a fitted effect of over 45% in size; note: potency is the fitted concentration of half-maximal effect; for activation: % is set by controls: 0 for no effect and ±100 for the full control effect); settings: TSHR-HEK293 cells, cAMP HTRF, agonist mode, 30 min; activation: at 92.4 µM (top of the series) unless noted
UniProt P16473, sequence (P16473 whole entry, looked up): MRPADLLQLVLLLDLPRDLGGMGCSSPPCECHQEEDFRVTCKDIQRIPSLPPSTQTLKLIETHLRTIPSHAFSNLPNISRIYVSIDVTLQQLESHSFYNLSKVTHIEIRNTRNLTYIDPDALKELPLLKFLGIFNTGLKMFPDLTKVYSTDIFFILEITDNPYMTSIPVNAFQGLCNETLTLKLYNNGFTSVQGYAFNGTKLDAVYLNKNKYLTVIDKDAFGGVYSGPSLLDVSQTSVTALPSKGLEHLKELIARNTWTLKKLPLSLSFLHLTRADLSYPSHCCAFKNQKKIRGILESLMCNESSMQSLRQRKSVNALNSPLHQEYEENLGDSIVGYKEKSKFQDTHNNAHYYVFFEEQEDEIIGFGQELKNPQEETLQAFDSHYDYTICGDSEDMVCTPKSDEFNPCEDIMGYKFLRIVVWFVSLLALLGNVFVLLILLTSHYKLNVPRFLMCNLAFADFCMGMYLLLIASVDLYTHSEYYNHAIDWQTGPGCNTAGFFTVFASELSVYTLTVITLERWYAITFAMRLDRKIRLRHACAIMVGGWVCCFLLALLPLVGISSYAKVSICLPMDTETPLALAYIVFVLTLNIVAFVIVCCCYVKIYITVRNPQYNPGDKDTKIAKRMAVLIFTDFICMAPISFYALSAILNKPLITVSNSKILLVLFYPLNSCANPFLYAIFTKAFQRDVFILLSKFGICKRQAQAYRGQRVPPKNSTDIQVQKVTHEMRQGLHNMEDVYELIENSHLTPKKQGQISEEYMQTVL
How it was run: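 TSHR-HEK293 cells in agonist mode, 30 min room-temperature step, then cAMP measured by competitive HTRF (cAMP-d2 with anti-cAMP cryptate) after 1 h at room temperature. Tested at 15 concentrations in triplicate.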

[2] = qHTS assay to identify small molecule antagonists of the estrogen related receptor signaling pathway with the pleiotropic PPARgamma coactivator (PGC) from Tox21 10K library (AID 1224841; call rule not given here; note: actives are mostly falling curves and most rising ones were filed inactive; nearly all actives have a fitted effect of over 50% in size; note: potency is the fitted concentration of half-maximal effect)
How it was run: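 Compound exposure ran 18 hours at 37 C in PGC/ERR cells (2,000/well) that had first rested 6 hours in a 37 C/5% CO2 incubator. Luciferase activity was then detected with One-Glo after a 30-minute room-temperature step.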

[3] = qHTS assay to identify small molecule agonists of the hypoxia (HIF-1) signaling pathway - cell viability counter screen (AID 1224844; calls by dose curve; note: nearly all actives have a fitted effect of over 50% in size; note: potency is the fitted concentration of half-maximal effect)
How it was run: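 Luminescent ATP content (CellTiter-Glo, 30 min, room temperature) served as the viability measure in HRE-bla ME-180 cells exposed to compounds for 17 hrs in low-serum medium (0.5% dialyzed FBS).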

[4] = qHTS assay to identify small molecule agonists of the estrogen related receptor (ERR) signaling pathway from Tox21 library (AID 1224849; calls by dose curve; note: % is set by controls: 0 for no effect and ±100 for the full control effect; nearly all actives have a fitted effect of over 15% in size); settings: ERR reporter cell line, ONE-Glo luciferase, 18 h; at 92.4 µM (top of the series)
How it was run: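 We plated ERR reporter cells, waited 6 h, added compounds in DMSO by pin tool and incubated them 18 h at 37 C. ONE-Glo was then added and luminescence read after 30 min.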

[5] = qHTS assay to identify small molecule agonists of H2AX (AID 1224845; active = well fitted activation curve with a large enough effect in the signal ratio in the repeat runs, not every such curve was filed as active; inconclusive = weak or mixed curves; the % refers to the signal ratio; note: potency is the fitted concentration of half-maximal effect; for activation (H2AX phosphorylation): % is set by controls: 0 for no effect and ±100 for the full control effect); settings: CHO-K1 phospho-H2AX Ser139 HTRF, 3 h; activation (H2AX phosphorylation): at 154 µM (top of the series)
How it was run: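 Wild-type CHO-K1 cells, plated overnight, exposed 3hr at 37C to 15 concentrations (0.76% DMSO final). Lysed, then HTRF anti-pH2AX (S139) cryptate and anti-H2AX-d2 antibodies, 24 hr room temperature; 665/620 nm emission read.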

[6] = qHTS RealTime-Glo MT Cell Viability Assay in HEK293 cells - 32 hour (AID 1224868); note: potency is the fitted concentration of half-maximal effect; nearly all actives have a fitted effect of over 50% in size
How it was run: (§1)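 Quantitative high-throughput screen of the Tox21 10K library in HEK293: cells and RealTime-Glo reagents plated together, compound added at 5 h, luminescence monitored through 40 h at 37 C.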

[7] = A CellTox Green Cytotoxicity Assay to monitor cytotoxicity in HEK293 cells - 40 hour (AID 1224871); note: potency is the fitted concentration of half-maximal effect; nearly all actives have a fitted effect of over 45% in size
How it was run: (§2)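 Each value comes from one timepoint of a single continuous run in which HEK293 cells with CellTox Green were exposed to compound for up to 40 h at 37 C, dye fluorescence rising with cell death.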

[8] = qHTS RealTime-Glo MT Cell Viability Assay in HepG2 cells - 8 hour (AID 1224873); note: potency is the fitted concentration of half-maximal effect; nearly all actives have a fitted effect of over 55% in size
How it was run: (§3)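 HepG2 cells (600/well) mixed with RealTime-Glo MT reagent, settled 5 h at 37 C/5% CO2 before compound addition. Nonlytic NanoLuc luminescence from viable-cell prosubstrate reduction read repeatedly during 40 h treatment at 37 C.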

[9] = qHTS assay to identify small molecule agonists of the hypoxia (HIF-1) signaling pathway (AID 1224846; active = well fitted activation curve with a large enough effect in the signal ratio in the repeat runs, not every such curve was filed as active; inconclusive = weak or mixed curves; the % refers to the signal ratio; note: potency is the fitted concentration of half-maximal effect); settings: HRE-bla ME-180 cells, beta-lactamase ratio, 17 h; activation: at 76.8 µM (top of the series) unless noted
How it was run: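 Measured by blue/green FRET after loading CCF4-AM: beta-lactamase expressed from a hypoxia response element in ME-180 cells. Test agents were delivered in DMSO and left 17 hrs; cells had been plated 5 hrs earlier in low-serum (0.5% dialyzed FBS) medium.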

[10] = qHTS RealTime-Glo MT Cell Viability Assay in HEK293 cells - 16 hour (AID 1224872); note: potency is the fitted concentration of half-maximal effect; nearly all actives have a fitted effect of over 50% in size
How it was run: as §1

[11] = qHTS assay to identify small molecule agonists of H2AX - cell viability counter screen (AID 1224847; calls by dose curve; note: potency is the fitted concentration of half-maximal effect; nearly all actives have a fitted effect of over 30% in size)
How it was run: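 Quantitative HTS viability measurement: CHO-K1 wild-type cells in serum (10% FBS) medium, short 3 hr drug exposure at 37C with 0.76% DMSO, CellTiter-Glo luminescent detection.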

[12] = qHTS assay to identify small molecule antagonists of the estrogen related receptor (ERR) signaling pathway from Tox21 library (AID 1224848)
How it was run: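 ERR reporter cell line (from NTP) seeded 2,000 cells/well, rested 6 h at 37 C/5% CO2, then pin-dosed with compounds in DMSO. After 18 h at 37 C, ONE-Glo added; luminescence read after 30 min at room temperature.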

[13] = qHTS RealTime-Glo MT Cell Viability Assay in HEK293 cells - 40 hour (AID 1224874); settings: RealTime-Glo luminescence; max response: stronger effect = lower value
How it was run: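 qHTS format; HEK293 cells with NanoLuc/prosubstrate reagent, 37 C/5% CO2 for 5 h pre-dosing; compounds 23 nL in DMSO; luminescence at each time point reflects viable cells.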

[14] = A CellTox Green Cytotoxicity Assay to monitor cytotoxicity in HEK293 cells - 0 hour (AID 1224869)
How it was run: as §2

[15] = qHTS RealTime-Glo MT Cell Viability Assay in HepG2 cells - 24 hour (AID 1224867)
How it was run: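 Compound treatment began 5 h after plating HepG2 cells (600/well) with NanoLuc luciferase and prosubstrate. Plates stayed at 37 C for 40 h; luminescence was captured at six time points, 0 h through 40 h.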

[16] = qHTS RealTime-Glo MT Cell Viability Assay in HepG2 cells - 40 hour (AID 1224870)
How it was run: as §3
Tags give direction and shape of the fitted curve or compound fluorescence and quenching.

O=C(Cc1ccccc1)OCCc1ccccc1
Potency [1]: inconclusive: 15.4 µM [inhibitor, partial curve]

CC(C)C(=O)OCC(C)(C)C(OC(=O)C(C)C)C(C)C (configuration not stated)
Potency [2]: inactive | Potency [3]: inactive | activity change, positive = activation [4]: inactive: 5% and inactive: 0.884%

Cc1cc(N=Nc2ccccc2C)ccc1N
activation [1]: inconclusive: -12.9% and inconclusive: -43% | Potency [3]: inconclusive: 54.9 µM [cytotoxic, single point] | activation (H2AX phosphorylation) [5]: inconclusive: -6.7% | Potency [6]: active: 21.9 µM | Potency [7]: inconclusive: 54.9 µM [activator, single point] | Potency [8]: inconclusive: 43.6 µM [falling, partial curve] and inconclusive: 49 µM [falling, partial curve]

COc1cc(OC)c(OC)cc1C=O
Potency [2]: active: 21.9 µM | Potency [3]: inconclusive: 59.8 µM [cytotoxic, single point] | Potency [5]: inconclusive: 123 µM [activator, single point] | Potency [9]: inconclusive: 53.3 µM [single point] | Potency [10]: inconclusive: 18.9 µM [rising, partial curve, poor fit]

CC(C)CCCCCCCOP(=O)(Oc1ccccc1)Oc1ccccc1
Potency [2]: inconclusive: 8.68 µM [falling, full curve, poor fit] | Potency [1]: active: 24.5 µM | Potency [11]: inconclusive: 114 µM [cytotoxic, single point] | Potency [12]: inconclusive: 17.3 µM [inhibitor, full curve] | Potency [6]: inconclusive: 27.7 µM [cytotoxic, partial curve] | Potency [10]: inconclusive: 34.8 µM [cytotoxic, partial curve]

Cc1ccc(N(SC(F)(Cl)Cl)S(=O)(=O)N(C)C)cc1
Potency [1]: inconclusive: 2.73 µM [activator, full curve] | Potency [9]: inconclusive: 12.3 µM [falling, full curve] | Potency [7]: active: 4.9 µM | Potency [10]: active: 5.49 µM | Potency [13]: active: 5.49 µM

CO/N=C(\C(=O)OC)c1ccccc1CO/N=C(\C)c1cccc(C(F)(F)F)c1
activation [1]: inconclusive: -28.6% | Potency [3]: inconclusive: 38.9 µM [cytotoxic, partial curve, poor fit] | Potency [9]: inconclusive: 19.5 µM [falling, full curve, poor fit] | Potency [7]: active: 6.92 µM | Potency [10]: inconclusive: 54.9 µM [cytotoxic, single point]

CC(C)Oc1cccc(NC(=O)c2ccccc2C(F)(F)F)c1
Potency [1]: inconclusive: 6.86 µM [inhibitor, full curve] | Potency [3]: inconclusive: 21.9 µM [cytotoxic] | Potency [11]: inconclusive: 35.7 µM [cytotoxic] | Potency [12]: active: 24.3 µM | Potency [14]: active: 43.6 µM | Potency [10]: inconclusive: 21.9 µM [cytotoxic] | Potency [8]: inconclusive: 43.6 µM [phenotype inactive, partial curve] | Potency [13]: inconclusive: 36.7 µM [cytotoxic]

CC[C@H](C)[C@H]1O[C@]2(C=C[C@@H]1C)C[C@@H]1C[C@@H](C/C=C(\C)[C@@H](O[C@H]3C[C@H](OC)[C@@H](O[C@H]4C[C@H](OC)[C@@H](O)[C@H](C)O4)[C@H](C)O3)[C@@H](C)/C=C/C=C3\CO[C@@H]4[C@H](O)C(C)=C[C@@H](C(=O)O1)[C@]34O)O2
activation [1]: inconclusive: 31.2% [at 42.5 µM] | Potency [11]: inconclusive: 42.1 µM [cytotoxic, partial curve, poor fit] | Potency [15]: inconclusive: 25.8 µM [falling, partial curve] | Potency [6]: inconclusive: 10.3 µM [cytotoxic, partial curve] | Potency [16]: inconclusive: 28.9 µM [falling, partial curve] | Potency [7]: inconclusive: 36.4 µM [activator, single point] | Potency [10]: inconclusive: 11.5 µM [cytotoxic, partial curve] | Potency [8]: inconclusive: 20.5 µM [falling, partial curve]

Cc1c(COC(=O)[C@@H]2[C@H](/C=C(\Cl)C(F)(F)F)C2(C)C)cccc1-c1ccccc1
activation [1]: inconclusive: -17.1% and inconclusive: -21.9% | Potency [11]: inconclusive: 87.7 µM [cytotoxic, partial curve] and inconclusive: 28.3 µM [cytotoxic, full curve] | Potency [6]: active: 21.4 µM and inconclusive: 43.5 µM [cytotoxic, partial curve] | Potency [10]: inconclusive: 38 µM [cytotoxic, partial curve] and inconclusive: 38.8 µM [cytotoxic, partial curve, poor fit] | Potency [13]: inconclusive: 48.9 µM [cytotoxic, partial curve, poor fit]

— PubChem BioAssay (Tox21)
